Experimental data: PubChem BioAssay AID445 (National Center for Advancing Translational Sciences (NCATS), 2006)
Hit rate of the full screen: of about 110,000 compounds, about 40 (0.04%) were called active. The inconclusive results got no clear call from the source; some entries with a clear call stand among them for comparison. The call rests on the fitted dose curve; in most records, active means well fitted curve in the direction sought with a large enough effect in the signal ratio (not every such curve was filed as active); inconclusive means small, poorly fitted or top-dose-only effect, or a change in a side signal; inactive means flat fitted curve, though single readings scatter; the % refers to the signal ratio. Potencies beside an inconclusive call are fits to weak or partial responses and may not hold up.

assay: IkB Signaling; conditions: ABC-DLBCL IkBa-CBG/CBR dual luciferase ratio (green luciferase fused to IkBa over red control in OCI-Ly3 lymphoma cells), 4 h; IkBa stabilization activation: at 57.1 µM (top of the series), scaled: untreated 0%, proteasome inhibitor 100% unless noted;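 on IkBa stabilization activation: 0% = basal untreated cells and 100% = reference inhibitor full response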
Summary of the method: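 Curves were fitted separately to fusion (green), unfused (red) and ratio luminescence, then classed by r2, magnitude and activity. Cells: OCI-Ly3, 4 h compound plus doxycycline at 37C; 10 uM MG-132 defined full response.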
Potency means the concentration at half of the fitted maximal effect.

Row | Structure (SMILES) | IkBa stabilization activation | Potency
1 | O=S(=O)(c1ccccc1)n1nc(-c2ccco2)nc1NCc1ccccc1 | inconclusive: -0.23% [signal inhibitor] | 
2 | CCC(Sc1nnc(-c2ccc(F)cc2)c(-c2ccc(F)cc2)n1)C(=O)NC1CCCC1 (centres undefined) | inconclusive: 0.865% [signal inhibitor] | 
3 | CC(Nc1oc(-c2ccc(COc3ccccc3)o2)nc1C#N)c1ccccc1 (centres undefined) | inactive | 
4 | COc1ccccc1-c1cc(C(=O)Nc2cccnc2)no1 |  | inconclusive: 3.98 µM [rising, partial curve]
5 | O=C(CSc1nc2c([nH]c3ccccc32)c(=O)n1-c1ccccc1F)Nc1cccc(Cl)c1 | inconclusive: 0.213% [signal inhibitor] | 
6 | CCC(=O)N1CCc2cc(S(=O)(=O)CCC(=O)Nc3cc(Cl)ccc3OC)ccc21 | inconclusive: 7.6% [signal inhibitor] | 
7 | CN1C=CC(=C2C(=O)c3ccccc3C2=O)C=C1 | inactive | 
8 | Cc1ccc(-c2nnc3ccccc3c2C(=O)Nc2ccc(F)cc2)cc1 | inconclusive: 3% [signal inhibitor] | 
9 | COc1ccc(C(C)=O)cc1CSc1nc(Nc2ccc(F)c(F)c2)c2ccccc2n1 | inactive | 
10 | Cc1ccccc1-n1c(C)nnc1SCc1nc2ccccc2s1 | inconclusive: 1.96% [signal inhibitor] | 
11 | COc1ccccc1Nc1nn2c(=O)c3ccc(C(=O)NCCc4ccccc4)cc3nc2s1 | inconclusive: -3.76% [signal inhibitor] | 
12 | Cc1ccn2c(Nc3ccccc3)c(-c3c[nH]c4ccccc34)nc2c1 |  | inconclusive: 0.0316 µM [signal inhibitor, full curve, poor fit]
13 | Cc1cc(C)cc(NC(=O)C(=O)NCCc2sc(-c3cccc(F)c3)nc2C)c1 | inactive | 
14 | CC(=O)Nc1ccc(NC(=O)c2ccc3c(c2)CCN3S(=O)(=O)c2ccc(C)cc2)cc1 | inactive | 
15 | Cc1ccccc1NC(=O)CSc1ccc(-c2ccccn2)nn1 | inactive | 
16 | FC(F)(F)c1cccc(N2CCN(c3nnnn3-c3ccccc3)CC2)c1 | inactive | 
17 | COc1ccccc1-c1nn(CCC(=O)Nc2ccc(C)cc2)c2nc(C)cc(C)c12 | inconclusive: 2.31% [signal inhibitor] | 
18 | COc1ccc(S(=O)(=O)Nc2cccc(-c3ccc(N4CCCC4)nn3)c2)cc1F | inconclusive: 0.0197% [signal inhibitor] | 
19 | CCc1nc(NCc2ccco2)c2oc3ccccc3c2n1 | inactive | 
20 | O=C(CCn1c(SCC(=O)NCc2ccco2)nc2ccccc2c1=O)NCCc1ccccc1 | inconclusive: 13.5% [signal inhibitor] | 
21 | CCCCCn1c(CCCNC(=O)c2ccccc2OC)nc2ccccc21 | inconclusive: 1.36% [signal inhibitor] | 
22 | O=C(NCc1ccccc1Cl)C1=Cc2cc(Br)ccc2OC1 | inconclusive: 4.37% [signal inhibitor] | 

Row | Structure (SMILES) | IkBa stabilization activation | Potency
23 | CCOC(=O)c1c(C)[nH]c(C(=O)CSc2ccccc2)c1C | inactive | 
24 | Cc1cc(C(=O)OCC(=O)NCc2ccco2)c(C)n1-c1ccc(F)cc1 |  | inconclusive: 25.1 µM [rising, partial curve]
25 | O=C(NCC(c1ccc2c(c1)OCO2)N1CCN(c2ccccc2)CC1)C(=O)Nc1ccccc1F (centres undefined) | inconclusive: 1.92% [signal inhibitor] | 
26 | CCOc1ccc(NC(=O)CC2C(=O)N(c3ccc(OC)cc3)C(=O)N2CCC2=CCCCC2)cc1 (centres undefined) | inconclusive: 2.25% [signal inhibitor] | 
27 | CC(=O)Nc1cccc(-c2nnc(SCC(=O)c3cc([N+](=O)[O-])ccc3Cl)o2)c1 |  | inconclusive: 31.6 µM [rising, single point]
28 | COc1cccc(N2CCN(C(=O)c3ccc4nc(N5CCC(C)CC5)sc4c3)CC2)c1 | inconclusive: 17.6% [signal inhibitor] | 
29 | CCOC(=O)c1cnc2ccc(C(=O)OC)cc2c1Nc1ccc(OCc2ccccc2Cl)cc1 | inconclusive: 10.1% [signal inhibitor] | 
30 | OCCn1c(CSc2nnc(-c3ccco3)n2-c2ccccc2)nc2ccc(Cl)cc21 | inconclusive: 1.41% [signal inhibitor] | 
31 | O=C(NCc1cccc(Br)c1)C1CCCCN1S(=O)(=O)c1ccc(F)cc1 (centres undefined) | inconclusive: 1.87% [signal inhibitor] | 
32 | COc1cccc(NC(=O)C(C)n2c(=O)cc(C(F)(F)F)c3c(C)nn(C)c32)c1 (centres undefined) | inconclusive: -1.23% [signal inhibitor] | 
33 | CCc1ccc(CNC(=O)CN2C(=O)C3CCCCN3c3ccc(C(=O)N4CCCC4)cc32)cc1 (centres undefined) | inconclusive: 1.85% [signal inhibitor] | 
34 | COc1ccc(N2CSC3=C(C#N)C(c4ccc(OC)c(OC)c4)CC(=O)N3C2)c(OC)c1 (centres undefined) |  | inconclusive: 31.6 µM [rising, partial curve]
35 | CC(C)Oc1ccc(CNC(=O)C(C)n2ccc3cc(S(=O)(=O)N4CCCCCC4)ccc32)cc1 (centres undefined) | inconclusive: 0.852% [signal inhibitor] | 
36 | CCOc1ccccc1NC(=O)Cn1c(=O)nc(-c2ccccc2F)c2cc(Cl)ccc21 | inconclusive: 0.945% [signal inhibitor] | 
37 | Cc1ccc(-c2csc(N3CCC(NS(=O)(=O)c4ccc5c(c4)OCCO5)CC3)n2)cc1 | inconclusive: 17.3% [signal inhibitor] | 
38 | CCC(C)Sc1nc2c(c(=O)[nH]c(=O)n2C)n1Cc1ccc(Cl)cc1 (centres undefined) | inactive | 
39 | COc1ccc(OCc2nc3ccccc3n2Cc2ccc(C(C)(C)C)cc2)cc1 | inconclusive: 17% [signal inhibitor] | 
40 | CC1(C)Cc2c(C#N)c(NC3CCCCC3)nc(-c3ccco3)c2CO1 | inactive | 
41 | CCN(CC)C(=O)Cn1c(SCC(=O)Nc2ccc(F)cc2)nc2ccccc21 | inconclusive: 11.4% [signal inhibitor] | 
42 | CCOC(=O)c1[nH]c2ccccc2c1NC(=O)c1ccc(C)c(C)c1 | inactive | 
43 | Cc1ccc(-c2nnc(Nc3ccc(OCC(N)=O)cc3)c3ccccc23)cc1S(=O)(=O)NCC1CCCO1 (centres undefined) | inconclusive: 10.7% [signal inhibitor] | 
44 | O=C(CCn1cnc2onc(-c3ccc(F)cc3)c2c1=O)Nc1cccc(C(F)(F)F)c1 | inconclusive: 6.24% [signal inhibitor] | 
